Laboratory results taken from PubChem BioAssay AID743255 (National Center for Advancing Translational Sciences (NCATS), 2014).
In all, about 390,000 compounds went through this assay and about 910 (0.23%) were called active. Another 5% or so got no clear call; they are omitted. Calls follow the shape of the dose curve; as a rule, active = well fitted inhibition curve with a large enough effect; inconclusive = small, poorly fitted or top-dose-only effect; inactive = no such curve, though single readings can be large or run the other way. The list shows a part of the results, in another mix than the full data.

target: Ubiquitin carboxyl-terminal hydrolase 1 (Homo sapiens) (UniProt O94782); experiment: Inhibitors of USP1/UAF1: Primary Screen; conditions: recombinant USP1/UAF1, Ub-Rhodamine cleavage fluorescence; activity change, negative = inhibition: at 57.1 µM (top of the series); also: nearly all actives have a fitted effect of over 60% in size
How it was run: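 High-throughput fluorogenic screen: 1nM USP1/UAF1 complex, Ub-Rho substrate 150nM final, 50mM HEPES pH 7.8 with 0.5mM EDTA, 0.1 mg/ml BSA, 1mM TCEP and 0.01% Tween-20.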
% is scaled to controls: 0 for no effect and ±100 for the full control effect; potency is read from the fitted curve at half-maximal effect.

UniProt O94782, sequence (O94782 whole entry, looked up): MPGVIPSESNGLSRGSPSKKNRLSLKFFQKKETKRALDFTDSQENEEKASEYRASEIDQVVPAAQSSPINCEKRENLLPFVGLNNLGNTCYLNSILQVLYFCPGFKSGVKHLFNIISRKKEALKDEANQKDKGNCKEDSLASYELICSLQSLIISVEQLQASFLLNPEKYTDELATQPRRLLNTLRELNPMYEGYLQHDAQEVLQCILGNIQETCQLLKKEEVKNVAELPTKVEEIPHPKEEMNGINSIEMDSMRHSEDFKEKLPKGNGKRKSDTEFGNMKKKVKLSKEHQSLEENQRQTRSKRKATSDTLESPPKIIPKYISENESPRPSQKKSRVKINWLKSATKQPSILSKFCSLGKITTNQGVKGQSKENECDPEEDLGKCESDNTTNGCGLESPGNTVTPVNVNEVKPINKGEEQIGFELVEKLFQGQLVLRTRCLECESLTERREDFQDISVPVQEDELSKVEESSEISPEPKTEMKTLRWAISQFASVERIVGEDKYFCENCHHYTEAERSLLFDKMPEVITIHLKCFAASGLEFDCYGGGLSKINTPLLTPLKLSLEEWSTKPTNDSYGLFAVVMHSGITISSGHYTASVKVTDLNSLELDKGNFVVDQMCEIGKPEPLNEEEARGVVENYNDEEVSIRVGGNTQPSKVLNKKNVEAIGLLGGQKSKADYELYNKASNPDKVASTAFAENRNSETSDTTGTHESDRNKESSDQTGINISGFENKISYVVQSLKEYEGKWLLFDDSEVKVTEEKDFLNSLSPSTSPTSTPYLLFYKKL

Row | SMILES | activity change, negative = inhibition | Potency
1 | COc1ccc(NS(=O)(=O)c2cc([N+](=O)[O-])ccc2N/N=C\c2c(C)[nH]c3ccccc23)cc1 | inactive: -16.2% | 
2 | N#C/C(=C\c1ccccn1)c1nc2ccccc2s1 | inactive: 424% | 
3 | Cc1ccccc1-n1c(/C=C/c2c(C)n(C)c3ccccc23)nc2ccccc2c1=O | inactive: 88.3% | 
4 | O=C(Nc1cccc(NC(=O)c2ccc(Br)o2)c1)c1ccccc1 | inactive: -11.6% | 
5 | COc1ccc([C@H]2C[C@@H](n3cc(-c4ccc(F)cc4)nn3)[C@H](O)CN2Cc2cccs2)cc1 | inactive: -5.47% | 
6 | Cn1cccc1/C=C1\CC(C(C)(C)C)C/C(=C\c2cccn2C)C1=O (stereo not drawn) |  | active: 11.2 µM
7 | O=C1N[C@@H](Cc2ccccc2)COC(=O)[C@H](Cc2ccc(F)cc2)CC/C=C/C[C@@H]1CC(=O)N(CCO)Cc1ccccc1 | inactive: -22.8% | 
8 | O=C1NCCOC(=O)[C@H](Cc2ccc(F)cc2)C/C=C\C[C@H]1CC(=O)N(CCO)Cc1ccccc1 | inactive: -25.8% | 
9 | CCOC(=O)N(C)C[C@@H]1OCc2cnnn2CCCC(=O)N([C@@H](C)CO)C[C@@H]1C | inactive: -25.9% | 
10 | O=C(NC1CC1)C1=C[C@@H](c2csc3ccccc23)C[C@@H](OCc2ccc(CO)cc2)O1 | inactive: -5.05% | 
11 | Cc1ccc(NC(=O)Cn2cc(C(=O)C3CC3)c3ccccc32)cc1 | inactive: -10.2% | 
12 | CCO[C@H]1OC(C(=O)Nc2ccccc2)=C[C@@H](C)[C@@H]1CCCO | inactive: -7.62% | 
13 | Cc1cccc(N(C)S(=O)(=O)c2ccc(-c3cc(C)no3)s2)c1 | inactive: 1.85% | 
14 | C[C@]12C(=O)N(c3cccc(F)c3)C(=O)N1[C@@H]1c3ccccc3OC[C@@H]1[C@H]2c1ccccc1 | inactive: -14.4% | 
15 | O=C(CCSCc1ccc(Cl)cc1)N1CCN(c2ccccc2F)CC1 | inactive: 1.08% | 
16 | COc1ccc(N2CCN(C(=O)c3nn(C)c4c3CS(=O)(=O)c3ccccc3-4)CC2)cc1 | inactive: -26.1% | 
17 | C[C@H]1CCC[C@@]2(O[C@H](CCO)C[C@H](O)[C@H]2O)O1 | inactive: -16.5% | 
18 | COc1ccccc1/C=C/C=C1\Oc2c(ccc(O)c2CN2CCN(CCO)CC2)C1=O |  | active: 31.6 µM
19 | COc1ccccc1C(=O)N/C(=C\c1ccc(Br)cc1)C(=O)N1CCCC1 | inactive: 2.01% | 
20 | C[C@@H]1CN([C@@H](C)CO)C(=O)CCCn2nncc2CO[C@@H]1CN(C)S(=O)(=O)c1ccc(-n2cccn2)cc1 | inactive: -11.1% | 
21 | Nc1ccn(C2CC(O)C(CO)O2)c(=O)n1 (stereo not drawn) | inactive: -15.3% | 

Row | SMILES | activity change, negative = inhibition | Potency
22 | CC(=O)c1ccc(NC(=O)C2=CC(c3cccs3)=NS(=O)(=O)N2C)cc1 | inactive: -9.87% | 
23 | C[C@@H]1CN([C@H](C)CO)C(=O)c2cc(Br)cnc2O[C@H]1CN(C)Cc1ccccc1 | inactive: 29.1% | 
24 | N#Cc1ccc(/C=C\c2nccc3c2[nH]c2ccccc23)cc1 |  | active: 22.4 µM
25 | N#C/C(=C\c1ccc(N2CCCCC2)o1)C(=O)Nc1cccc(Br)c1 |  | active: 28.2 µM
26 | OCC[C@H]1C[C@@H](O)[C@H](O)[C@]2(CCCCO2)O1 | inactive: -15.2% | 
27 | CC(C)(C)OC(=O)C[C@@H]1C/C=C\C[C@@H](CC(=O)N[C@H](CO)Cc2ccccc2)C(=O)NC[C@@H](c2ccccc2)OC1=O | inactive: -30.8% | 
28 | C=CCC[C@@H](Cc1ccc(F)cc1)C(=O)OC[C@@H](Cc1c[nH]c2ccccc12)NC(=O)[C@@H](CC=C)CC(=O)NCCO | inactive: -22.6% | 
29 | O=C(NCc1nc2ccccc2[nH]1)C1=C[C@H](c2csc3ccccc23)C[C@H](OCc2ccc(CO)cc2)O1 | inactive: -27% | 
30 | O=C(C[C@@H]1C/C=C\CC[C@H](Cc2ccc(F)cc2)C(=O)OC[C@@H]2CCCN2C1=O)N[C@H](CO)Cc1ccccc1 | inactive: -17.8% | 
31 | O=C(O)c1cc(O)c2c(c1)[C@H]([C@H]1c3cc(C(=O)O)cc(O)c3C(=O)c3c(O[C@@H]4O[C@H](CO)[C@@H](O)[C@H](O)[C@H]4O)cccc31)c1cccc(OC3O[C@H](CO)[C@@H](O)[C@H](O)[C@H]3O)c1C2=O (stereo partly drawn) |  | active: 7.08 µM
32 | C[C@@H]1CN([C@@H](C)CO)C(=O)CCCn2nncc2CO[C@H]1CN(C)S(=O)(=O)c1ccc(Cl)cc1 | inactive: -23.8% | 
33 | COc1ccc([C@@H]2CC(=O)c3c(O)cc(O[C@@H]4OC(CO[C@@H]5OC(C)[C@H](O)[C@@H](O)[C@H]5O)[C@@H](O)[C@H](O)[C@H]4O)cc3O2)cc1O (stereo partly drawn) | inactive: 3.75% | 
34 | CC(C)c1ccc(CN(C(=O)c2cc3ccccc3oc2=O)C2CCS(=O)(=O)C2)cc1 (stereo not drawn) | inactive: -11.1% | 
35 | CCc1ccc(Nc2nc(N)nc(CSc3nc4ccccc4s3)n2)cc1 | inactive: -18.9% | 
36 | NC1=NC[C@@H](Cc2ccc(O)cc2)N1CCc1cccc2ccccc12 | inactive: -22% | 
37 | COc1ccc(/C=C2\SC(=S)N(CCCC(=O)Nc3cc(C)on3)C2=O)cc1OC | inactive: 40.6% | 
38 | C[C@H](CO)N1C[C@H](C)[C@@H](CN(C)S(=O)(=O)c2ccccc2C#N)OCc2cnnn2CCCC1=O | inactive: -17.8% | 
39 | C[C@H]1CN(S(=O)C(C)(C)C)[C@H](CCO)/C1=C\c1ccccc1 (stereo partly drawn) | inactive: 1.12% | 
40 | CC(=O)Oc1c(/C=C(\C#N)C(N)=O)[nH]c2ccccc12 | inactive: 33% | 
41 | COC(=O)c1cc2sccc2n1Cc1nc(-c2ccc(Cl)cc2)oc1C | inactive: -10.9% | 
42 | COCCCNC(=O)c1ccc2c(=O)n(Cc3ccc(OC)cc3)c(=O)[nH]c2c1 | inactive: -17.1% | 

Row | SMILES | activity change, negative = inhibition | Potency
43 | O=C(C1CCCN(S(=O)(=O)c2ccc(Br)s2)C1)N1CCN(c2ccccc2)CC1 (stereo not drawn) | inactive: -12.8% | 
44 | C[C@@H]1CN([C@H](C)CO)C(=O)CCCn2nncc2CO[C@H]1CN(C)C(=O)c1cc(-c2ccccc2)on1 | inactive: -21% | 
45 | COC(=O)[C@H]1[C@H]2C[C@H]3c4[nH]c5ccccc5c4CCN3C[C@@H]2CC[C@@H]1O | inactive: -25.7% | 
46 | Cc1cccc(N=Nc2c(O)[nH]c3ccc(F)cc23)c1 | inactive: 31.5% | 
47 | C[C@@H]1CCC[C@@]2(O[C@@H](CCO)C[C@@H](O)[C@@H]2O)O1 | inactive: 2.3% | 
48 | C[C@@H]1C=C(C(=O)NC2CC2)O[C@H](OCc2ccc(CO)cc2)C1 | inactive: -16.3% | 
49 | Cc1cccc(N2CCN(C(=O)c3nn(C)c4c3CS(=O)(=O)c3ccccc3-4)CC2C)c1 (stereo not drawn) | inactive: -8.79% | 
50 | Cc1ccc(-n2c(-c3ccco3)nc3c(cnn3-c3ccc(C)cc3)c2=O)cc1 | inactive: -10.7% | 
51 | CCN1C(=O)[C@H]2[C@@H](c3ccc(SC4CCCCC4)cc3)N3CCCC[C@@]3(C(=O)OC)[C@H]2C1=O | inactive: -8.61% | 
52 | CCn1c(C)cc(C=C2C(=O)c3ccccc3C2=O)c1C | inactive: 314% | 
53 | COc1ccc([C@@H]2CC(=O)c3c(O)cc(O[C@@H]4O[C@H](CO[C@@H]5O[C@@H](C)[C@H](O)[C@@H](O)[C@H]5O)[C@@H](O)[C@H](O)[C@H]4O)cc3O2)cc1O | inactive: -0.42% | 
54 | C=CC[C@@H](CC(=O)N(CCO)Cc1ccccc1)C(=O)N[C@H](COC(=O)[C@@H](CC=C)CC(=O)OC(C)(C)C)c1ccccc1 | inactive: -7.8% | 
55 | C(=N\NC1=Nc2cccc3cccc1c23)/c1ccccc1 | inactive: 38.3% | 
56 | CCOc1ccc(-c2nc(CSCC(=O)NCc3ccc(C)cc3)c(C)o2)cc1 | inactive: 33.5% | 
57 | OCC[C@@H]1C[C@H](O)[C@@H](O)[C@]2(CCCO2)O1 | inactive: 12.5% | 
58 | O=C(O)c1ccc(-c2ccc(/C=c3/sc4nc5ccccc5n4c3=O)o2)cc1Cl |  | active: 28.2 µM
59 | CCOC(=O)[C@@H]1[C@H]2COc3ccc(Br)cc3[C@H]2N2C(=O)N(c3ccc(C(F)(F)F)cc3)C(=O)[C@]12C | inactive: -21.3% | 
60 | COC(C/C=C/[C@H](O)COCc1ccccc1)OC | inactive: -21.4% | 
61 | COc1ccc([C@H]2C[C@H](n3cc(-c4ccc(F)cc4)nn3)[C@@H](O)CN2CC2CCCCC2)cc1 | inactive: -11.9% | 
62 | COc1ccc(S(=O)(=O)/N=C2\C=C(Nc3ccc(O)cc3)C(=O)c3ccccc32)cc1 |  | active: 7.08 µM
63 | Cc1ccc(NC(=O)Nc2nnc(SCC(=O)N3CCC(C)CC3)s2)cc1 | inactive: 16.7% | 

Row | SMILES | activity change, negative = inhibition | Potency
64 | Cc1[nH]c2ccccc2c1/C=C/c1nc2ccccc2c(=O)n1CCO | inactive: 75.2% | 
65 | COc1ccc(NC(=O)CN2C(=O)COc3ccc(S(=O)(=O)N4CCOCC4)cc32)cc1Cl | inactive: -28.9% | 
66 | COc1ccccc1C(=O)NC(=O)Nc1ccc(-n2nc(C(F)(F)F)cc2C(F)(F)F)cc1 | inactive: 59.3% | 
67 | O=[N+]([O-])c1ccc(C=Nc2cccc3ccccc23)s1 |  | active: 14.1 µM
68 | Nc1ccc(N2CCOCC2)c2nonc12 |  | active: 17.8 µM
69 | COc1ccc(OC)c(C2=NS(=O)(=O)N(C)C(C(=O)Nc3ccc(C(C)=O)cc3)=C2)c1 | inactive: -22.7% | 
70 | COCCN(C(=O)COC(=O)/C=C/c1ccc2c(c1)OCO2)c1c(N)n(Cc2ccccc2)c(=O)[nH]c1=O | inactive: -13.1% | 
71 | CCn1c(=O)c(C(=O)Nc2cccnc2)c(O)c2ccccc21 | inactive: -3.41% | 
72 | CCC1CCCCN1CCCNC(=O)c1cn(CC)c2ccc(S(=O)(=O)N(C)C3CCCCC3)cc2c1=O (stereo not drawn) | inactive: -11.1% | 
73 | O=C1C=C(Nc2ccccc2C(=O)O)c2ccccc2C1=O |  | active: 7.94 µM
74 | O=C(N/N=C/C(Br)=C\c1ccccc1)c1cccs1 | inactive: -2.91% | 
75 | CC(=O)Nc1ccc(NC(=O)c2cc(=O)c3ccccc3o2)cc1 | inactive: -2.12% | 
76 | CCc1ccc(S(=O)(=O)/N=C2\C=C(NS(=O)(=O)c3ccccc3)C(=O)c3ccccc32)cc1 |  | active: 25.1 µM
77 | Cc1cccc(C)c1Nc1c(-c2ccc(N3CCOCC3)cc2)nc2ncccn12 | inactive: -35% | 
78 | CC(=O)O[C@]1(C(C)=O)CC[C@H]2[C@@H]3C=C(Cl)C4=CC(=O)[C@@H]5C[C@@H]5[C@]4(C)[C@H]3CC[C@@]21C | inactive: -12.9% | 
79 | CC(=O)C[C@H](O)CC(=O)[C@H]1OC(=O)CCCCC/C=C/Cc2ccccc21 | inactive: 19.2% | 
80 | CC(C)NC(=O)N(C)C[C@@H]1Oc2c(NS(=O)(=O)c3ccccc3)cccc2C(=O)N([C@@H](C)CO)C[C@@H]1C | inactive: -29.3% | 
81 | O=C(O)COCCN1CCN(C(c2ccccc2)c2ccc(Cl)cc2)CC1 (stereo not drawn) | inactive: -10.2% | 
82 | CC(=O)OCC(=O)C1(O)CCC2C3CCC4=CC(=O)C=CC4(C)C3C(O)CC21C (stereo not drawn) | inactive: 10.9% | 
83 | C[C@@H]1CN([C@@H](C)CO)C(=O)CCCn2nncc2CO[C@@H]1CN(C)C(=O)CCC(F)(F)F | inactive: -15.1% | 
